Measurements reported in the supplement of paper PMC8728848.
Some of the results follow.

What was measured:
Experiment in all cases: glycan array binding signal (z-score within array); higher = stronger binding
Details in all cases: glycan notation: IUPAC condensed, linker removed
[1] = target: Neu5Ac(a2-6)Gal(b1-4)GlcNAc(b1-2)Man(a1-3)[Gal(b1-4)GlcNAc(b1-2)Man(a1-6)]Man(b1-4)GlcNAc(b1-4)GlcNAc
Method in brief: (§1)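 Glycan array data came from 3228 arrays in the Consortium for Functional Glycomics database, and only arrays with an available protein sequence were kept. Glycan names were put into IUPAC-condensed notation, and columns mapping to the same glycan were averaged. The binding signal is a within-array Z-score, averaged across arrays of one protein sequence run at different concentrations or buffers and across linkers. A negative Z-score can be read as non-binding.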

[2] = target: Neu5Ac(a2-6)Gal(b1-4)GlcNAc(b1-2)Man(a1-3)[GlcNAc(b1-2)Man(a1-6)]Man(b1-4)GlcNAc(b1-4)GlcNAc
Method in brief: as §1

[3] = target: Neu5Ac(a2-6)Gal(b1-4)GlcNAc(b1-2)Man(a1-3)[GlcNAc(b1-2)Man(b1-4)GlcNAc(b1-2)Man(a1-6)]Man(b1-4)GlcNAc(b1-4)GlcNAc
Method in brief: as §1

[4] = target: Neu5Ac(a2-6)Gal(b1-4)GlcNAc(b1-2)Man(a1-3)[Neu5Ac(a2-6)Gal(b1-4)GlcNAc(b1-2)Man(a1-6)]Man(b1-4)GlcNAc(b1-4)GlcNAc
Method in brief: as §1

[5] = target: Neu5Ac(a2-6)Gal(b1-4)GlcNAc(b1-2)Man(a1-6)[Gal(b1-4)GlcNAc(b1-2)Man(a1-3)]Man(b1-4)GlcNAc(b1-4)GlcNAc
Method in brief: as §1

[6] = target: Neu5Ac(a2-6)Gal(b1-4)GlcNAc(b1-2)Man(a1-6)[GlcNAc(b1-2)Man(a1-3)]Man(b1-4)GlcNAc(b1-4)GlcNAc
Method in brief: as §1

[7] = target: Neu5Ac(a2-6)Gal(b1-4)GlcNAc(b1-3)Gal(b1-4)GlcNAc
Method in brief: as §1

[8] = target: Neu5Ac(a2-6)Gal(b1-4)GlcNAc(b1-3)Gal(b1-4)[Fuc(a1-3)]GlcNAc(b1-3)Gal(b1-4)[Fuc(a1-3)]GlcNAc
Method in brief: as §1

[9] = target: Neu5Ac(a2-6)Gal(b1-4)GlcNAc6S
Method in brief: as §1

Neu5Ac(a2-6)GalNAc = target: Neu5Ac(a2-6)GalNAc
Method in brief: as §1

[10] = target: Neu5Ac(a2-6)GalNAc(b1-4)GlcNAc
Method in brief: as §1

Neu5Ac(a2-8)Neu5Ac = target: Neu5Ac(a2-8)Neu5Ac
Method in brief: as §1

[11] = target: Neu5Ac(a2-8)Neu5Ac(a2-3)Gal(b1-4)Glc
Method in brief: as §1

[12] = target: Neu5Ac(a2-8)Neu5Ac(a2-3)[GalNAc(b1-4)]Gal(b1-4)Glc
Method in brief: as §1

[13] = target: Neu5Ac(a2-8)Neu5Ac(a2-8)Neu5Ac
Method in brief: as §1

[14] = target: Neu5Ac(a2-8)Neu5Ac(a2-8)Neu5Ac(a2-3)Gal(b1-4)Glc
Method in brief: as §1

[15] = target: Neu5Ac(a2-8)Neu5Ac(a2-8)Neu5Ac(a2-3)[GalNAc(b1-4)]Gal(b1-4)Glc
Method in brief: as §1

[16] = target: Neu5Ac(a2-8)Neu5Ac(a2-8)Neu5Ac(a2-8)Neu5Ac(a2-3)[GalNAc(b1-4)]Gal(b1-4)Glc
Method in brief: as §1

[17] = target: Neu5Ac(b2-6)Gal(b1-4)GlcNAc
Method in brief: as §1

Neu5Ac(b2-6)GalNAc = target: Neu5Ac(b2-6)GalNAc
Method in brief: as §1

[18] = target: Neu5Ac9Ac(a2-6)Gal(b1-4)GlcNAc
Method in brief: as §1

[19] = target: Neu5Gc(a2-3)Gal(b1-3)GlcNAc
Method in brief: as §1

[20] = target: Neu5Gc(a2-3)Gal(b1-3)[Fuc(a1-4)]GlcNAc
Method in brief: as §1

Neu5Gc(a2-3)Gal(b1-4)Glc = target: Neu5Gc(a2-3)Gal(b1-4)Glc
Method in brief: as §1

[21] = target: Neu5Gc(a2-3)Gal(b1-4)GlcNAc
Method in brief: as §1

[22] = target: Neu5Gc(a2-3)Gal(b1-4)[Fuc(a1-3)]GlcNAc
Method in brief: as §1

[23] = target: Neu5Gc(a2-6)Gal(b1-4)GlcNAc
Method in brief: as §1

Neu5Gc(a2-6)GalNAc = target: Neu5Gc(a2-6)GalNAc
Method in brief: as §1

[24] = target: Neu5Gc(b2-6)Gal(b1-4)GlcNAc
Method in brief: as §1

B1: MIC1 (Toxoplasma gondii), O00834 (protein)
chain: MGQALFLTVLLPVLFGVGPEAYGEASHSHSPASGRYIQQMLDQRCQEIAAELCQSGLRKMCVPSSRIVARNAVGITHQNTLQWRCFDTASLLESNQENNGVNCVDDCGHTIPCPGGVHRQNSNHATRHEILSKLVEEGVQRFCSPYQASANKYCNDKFPGTIARRSKGFGNNVEVAWRCYEKASLLYSVYAECASNCGTTWYCPGGRRGTSTELDKRHYTEEEGIRQAIGSVDSPCSEVEVCLPKDENPPLCLDESGQISRTGGGPPSQPPEMQQPADRSDERGGGKEQSPGGEAQPDHPTKGGNIDLPEKSTSPEKTPKTEIHGDSTKATLEEGQQLTLTFISTKLDVAVGSCHSLVANFLDGFLKFQTGSNSAFDVVEVEEPAGPAVLTIGLGHKGRLAVVLDYTRLNAALGSAAYVVEDSGCSSSEEVSFQGVGSGATLVVTTLGESPTAVSA
glycan array binding signal (z-score) [1]: -0.368 | glycan array binding signal (z-score) [2]: -0.196 | glycan array binding signal (z-score) [3]: 0.367 | glycan array binding signal (z-score) [4]: -0.189 | glycan array binding signal (z-score) [5]: 0.312 | glycan array binding signal (z-score) [6]: 0.082 | glycan array binding signal (z-score) [7]: -0.201 | glycan array binding signal (z-score) [8]: -0.268 | glycan array binding signal (z-score) [9]: -0.128 | glycan array binding signal (z-score) (Neu5Ac(a2-6)GalNAc): -0.123 | glycan array binding signal (z-score) [10]: -0.152 | glycan array binding signal (z-score) (Neu5Ac(a2-8)Neu5Ac): -0.258 | glycan array binding signal (z-score) [11]: -0.311 | glycan array binding signal (z-score) [12]: -0.142 | glycan array binding signal (z-score) [13]: -0.176 | glycan array binding signal (z-score) [14]: -0.192 | glycan array binding signal (z-score) [15]: -0.255 | glycan array binding signal (z-score) [16]: -0.193 | glycan array binding signal (z-score) [17]: -0.064 | glycan array binding signal (z-score) (Neu5Ac(b2-6)GalNAc): -0.201 | glycan array binding signal (z-score) [18]: -0.294 | glycan array binding signal (z-score) [19]: -0.261 | glycan array binding signal (z-score) [20]: -0.289 | glycan array binding signal (z-score) (Neu5Gc(a2-3)Gal(b1-4)Glc): -0.259 | glycan array binding signal (z-score) [21]: 9.71 | glycan array binding signal (z-score) [22]: -0.21 | glycan array binding signal (z-score) [23]: -0.218 | glycan array binding signal (z-score) (Neu5Gc(a2-6)GalNAc): -0.313 | glycan array binding signal (z-score) [24]: -0.333
